Reference: patent US11357833B2, “Use of lysin to restore/augment antibacterial activity in the presence of pulmonary surfactant of antibiotics inhibited thereby” (priority 2015, dated 2022)
≈ marks a conversion by molar mass, not a printed value.

B1: CF-301: Bacteriophage lysin polypeptide, SEQ ID NO: 1 (GenBank accession ZP 03625529), antimicrobial agent against Staphylococcus aureus (protein, listed as Streptococcus suis)
chain: MTTVNEALNNVRAQVGSGVSVGNGECYALASWYERMISPDATVGLGAGVGWVSGAIGDTISAKNIGSSYNWQANGWTVSTSGPFKAGQIVTLGATPGNPYGHVVIVEAVDGDRLTILEQNYGGKRYPVRNYYSAASYRQQVVHYITPPGTVAQSAPNLAGSRSYRETGTMTVTVDALNVRRAPNTSGEIVAVYKRGESFDYDTVIIDVNGYVWVSYIGGSGKRNYVATGATKDGKRFGNAWGTFK

Test system: vancomycin-intermediate Staphylococcus aureus (VISA) strain ATCC 700699
Experiment: MIC by broth microdilution, with and without bovine-derived surfactant
Source text: In order to determine individual activity of CF-301 and DAP against different strains of Staphylococcus aureus in the presence of surfactant, the inventors tested 3 different S. aureus strains and used bovine-derived surfactant (Survanta, AbbVie Inc), which is a functional equivalent of human surfactant. Minimum inhibitory concentration (MIC) determination was preformed using methicillin resistant strain (MRSA) MW2 (FIG. 1A), methicillin-susceptible (MSSA) strain ATCC 29213 (FIG. 1B), and vancomycin-intermediate Staphylococcus aureus (VISA) strain ATCC 700699 (FIG. 1C), in the presence of increasing concentrations of surfactant (FIG. 1). MIC values were determined by broth microdilution according to Clinical and Laboratory Standards Institute. M07-A9. Methods for dilution antimicrobial susceptibility tests for bacteria that grow aerobically; approved standard. 8th ed. Wayne, Pa.: CLSI, 2012. Briefly, each strain of bacteria was suspended in growth media using calcium-adjusted Mueller-Hinton broth at the concentration of 5×10^5 colony-forming units [CFU]/mL and exposed to CF-301 or DAP in a series of 2-fold serial dilutions in 96-well polypropylene microtiter plates (Becton, Dickinson, and Company).

Molecule	MIC (Staphylococcus aureus, 24 h, read-out: Starting MIC (without surfactant))	Starting MIC (without surfactant) (ATCC 700699, no surfactant, 24 hours at 35° C.)	MIC increase (VISA, surfactant concentrations 1.25-15%)
CCCCCCCCCC(=O)N[C@@H](Cc1c[nH]c2ccccc12)C(=O)N[C@H](CC(N)=O)C(=O)N[C@@H](CC(=O)O)C(=O)N[C@@H]1C(=O)NCC(=O)N[C@@H](CCCN)C(=O)N[C@@H](CC(=O)O)C(=O)N[C@H](C)C(=O)N[C@@H](CC(=O)O)C(=O)NCC(=O)N[C@H](CO)C(=O)N[C@@H]([C@H](C)CC(=O)O)C(=O)N[C@@H](CC(=O)c2ccccc2N)C(=O)O[C@@H]1C [DAP, daptomycin, reference compound]	2 µg/mL (≈ 1.23 µM)	–	–
B1	–	64 µg/mL	≤ 4 fold
